Assay results from PubChem BioAssay AID588453 (National Center for Advancing Translational Sciences (NCATS), 2011).
Among all 390,000 compounds or so, about 4,000 (1%) were called active. Inconclusive means that the source gave no clear call. Such entries were picked first, then a sample of the others. Calls come from the whole dose curve; as a rule, active = well fitted inhibition curve with a large enough effect; inconclusive = small, poorly fitted or top-dose-only effect; inactive = no such curve, though single readings can be large or run the other way. Where the call is inconclusive, the potency comes from a doubtful curve fit.

The molecules below were run against Thioredoxin reductase 1, cytoplasmic (Rattus norvegicus) (UniProt O89049) (assay: qHTS Assay for Inhibitors of Mammalian Selenoprotein Thioredoxin Reductase 1 (TrxR1): qHTS). Settings: recombinant rTrxR1, NADPH fluorescence consumption, selenite substrate; series mostly up to 114 µM.
Chain of UniProt O89049 (O89049 whole entry, looked up): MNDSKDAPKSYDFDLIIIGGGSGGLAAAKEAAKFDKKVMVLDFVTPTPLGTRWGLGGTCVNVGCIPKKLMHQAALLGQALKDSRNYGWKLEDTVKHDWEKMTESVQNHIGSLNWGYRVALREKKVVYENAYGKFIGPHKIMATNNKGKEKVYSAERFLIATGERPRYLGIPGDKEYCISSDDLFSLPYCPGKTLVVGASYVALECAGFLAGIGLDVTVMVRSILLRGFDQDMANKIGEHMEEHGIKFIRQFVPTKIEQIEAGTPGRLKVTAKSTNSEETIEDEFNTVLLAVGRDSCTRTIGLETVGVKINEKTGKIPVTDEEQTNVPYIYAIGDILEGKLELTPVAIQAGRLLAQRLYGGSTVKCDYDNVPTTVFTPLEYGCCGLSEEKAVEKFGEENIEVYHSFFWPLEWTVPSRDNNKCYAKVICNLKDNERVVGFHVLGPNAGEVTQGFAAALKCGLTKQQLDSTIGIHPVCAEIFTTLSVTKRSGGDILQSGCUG
Method in brief: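 Rat TrxR1 (90 nM in the dispensed reagent) was pre-reduced with 400 uM NADPH for 5 min at room temperature, then incubated with compound for 15 min. After 400 uM selenite was added, NADPH fluorescence (Ex 340/Em 450 nm) was followed for 8 min.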
Note: nearly all actives have a fitted effect of over 65% in size.
Potency is the fitted concentration of half-maximal effect; tags give direction and shape of the fitted curve.

Compound | Potency
Cc1nc2nc(SCC(=O)NCCCN3CCCCCC3)nn2c(C)c1Cc1ccccc1 | inconclusive: 70.8 µM [inhibitor, partial curve]
NS(=O)(=O)c1ccc(NNC(=O)c2cccs2)cc1 | inconclusive: 0.891 µM [inhibitor, full curve]
CCOc1ccc(C(=O)Nc2ccc3oc(-c4cccc5ccccc45)nc3c2)cc1 | inactive
Cc1nc(S/C(=C/c2ccc(-c3ccc(C(=O)O)cc3)o2)C(=O)O)n[nH]1 | inconclusive: 63.1 µM [inhibitor, partial curve, poor fit]
C=CS(=O)(=O)N(Cc1ccccc1Br)[C@H](CO)Cc1ccccc1 | inconclusive: 3.16 µM [inhibitor, full curve, poor fit]
Cc1ccc(C)c(NC(=S)Nc2cccnc2)c1 | inconclusive: 20 µM [inhibitor, single point]
Cc1ccc(CNC(=O)Cn2cnc(S(=O)(=O)N3CCC(C)CC3)c2)o1 | inconclusive: 22.4 µM [inhibitor, full curve]
Cc1c(-c2ccc(Cl)cc2)oc(=O)c2c(N)n(-c3ccccc3)nc12 | inconclusive: 89.1 µM [inhibitor, single point]
CN(c1ccccc1)S(=O)(=O)c1ccc(C(=O)Nc2nccs2)cc1 | inactive
O=C(c1cccc(N2C(=O)C3C4C=CC(C4)C3C2=O)c1)N1CCN(c2ccccc2)CC1 (centres undefined) | inconclusive: 25.1 µM [inhibitor, single point]
Cn1nccc1C(=O)Nc1sc2c(c1C#N)CCCC2 | inactive
Cc1nn(Cc2ccc(C(=O)O)o2)c(C)c1[N+](=O)[O-] | inconclusive: 6.31 µM [inhibitor, single point]
CCCOC(=O)C1=C(C)CS[C@@H]2[C@H](NC(=O)COc3ccccc3)C(=O)N12 | inactive
Cc1cc(NC(=S)Nc2cccnc2)ccc1Br | inconclusive: 70.8 µM [inhibitor, partial curve]
COc1ccc(NC(=O)/C(C#N)=C/c2ccc(-c3ccc(Cl)c(C(=O)O)c3)o2)cc1 | inactive
CCCCn1c(N)c(N(CC)C(=O)CSc2nnc(-c3ccco3)n2CC)c(=O)[nH]c1=O | inconclusive: 25.1 µM [inhibitor, partial curve, poor fit]
C=CCn1c(-c2ccccc2OC)n[nH]c1=S | inconclusive: 35.5 µM [inhibitor, partial curve]
Cc1c(Cc2ccccc2)sc(/N=C/c2c(O)ccc3ccccc23)c1C(N)=O | inconclusive: 89.1 µM [inhibitor, single point]
Cc1cc(C)n2nc(-c3ccsc3-n3c(C)ccc3C)cc2n1 | inconclusive: 56.2 µM [inhibitor, partial curve]
